Among the data in the supplement of paper PMC10126150 are switch fluorescence ratio values, retold here.

Values marked as one replicate rest on one cluster of the flow cell; about a third of the high ones do not repeat.

For the series, the system named is ATP. The series is described as follows: switch fluorescence ratio, 500 uM ATP over buffer (Cy3 cluster intensity, sum of 5 cycles each) (fold (ratio)); higher = stronger signal-on switching upon ATP binding; sequences stand for … in TCGTCGGCAGCGTCAGATGTGTATAAGAGACAGTTTTTTTTTTTTTTTTTTTTTTTTT…TC. Particulars: aptamer strand: ATP DNA aptamer (quencher-CACCTGGGGGAGTATTGCGGAGGAAGG + anchor), 100 nM annealed; ATP concentration: 500 uM; one replicate. The procedure, abridged:
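Values give the fluorescence ratio for each switch-domain sequence, averaged from per-cluster ratios of summed target-cycle to summed buffer-cycle Cy3 intensity. The Cy3-labelled switching-strand clusters sat on a modified Illumina MiSeq flow-cell, were annealed to 100 nM quencher-labelled ATP aptamer, and were imaged in selection buffer, then after 15 min with 500 uM ATP at 22 °C. Five cycles ran with NaOH stripping and re-annealing between them, and clusters outside 100-1000 RFU were excluded.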
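Also: ATP exposure 15 min at 22 °C before imaging.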

Turning to GTTAACCCCC, the switch fluorescence ratio worked out at 2.5.
To GAATGAACGG belongs 1.11; to CAAAGACGAG, 0.987.
For CTATTGACGG, the switch fluorescence ratio is 0.97.
To TAATTGACAT belongs 1.03.
The value for TTCCGGAGTT was 1.19; that for ATCCGCACTT was 2.95.
Take TTCTCGGTTC: the switch fluorescence ratio is 1.05.
For the sequence GCTGAAGGCG, the switch fluorescence ratio is 0.936.
The value for ACTTCTGGGA was 0.969; that for ACGCATCTGG was 1.09.
The value for CTGATCTATA was 0.974.
To TAAATTTAA belongs 0.963.
In the case of GCTGGGGTCA, the switch fluorescence ratio turned out to be 0.989.
With TTTGTTACT, the switch fluorescence ratio came to 1.
TTTAAAGCAT: the switch fluorescence ratio is 1.04.
The value for GATACGGTAA was 1.11; that for CGTGGCGTGA was 1.03; that for AGGTCCCGGC was 0.981.
To GTAAAAGCTT belongs 1.03.
The value for ATAACTCGC was 1.04; that for TTAACAAAT was 0.966; that for TGTCAGTTAG was 1.04.
For the sequence GTCCAGACTT, the switch fluorescence ratio came out at 1.02.
To CCCGGTGGAA belongs 0.945.
To CGGTGGTGCA belongs 1.01.
To CTGATCAGAT belongs 0.977; to CATCCTACGA, 1.18.
For CTTTAGCAGC, the switch fluorescence ratio amounted to 1.54.
The value for CCTGAGCACC was 1.69; that for TGCATTGAAG was 0.953; that for CAACGTAAGT was 1.02.
The value for TTTTGGAACT was 0.988.
The value for GTTAAATTTG was 0.979; that for CCAAGGTGA was 2.1; that for GGGAGAGATT was 1.01.
As for TGGACCAGGC, the switch fluorescence ratio was determined as 1.03.
The value for TACCCTCGTT was 0.991.
The value for CGATTTTACT was 1.04; that for GTGTCAGTAG was 1.01.
For the sequence GAGGATGAAA, the switch fluorescence ratio came out at 0.966.
The value for ATGGTAGTCA was 1.01.
For GCAGGGCGGT, the switch fluorescence ratio amounted to 1.
In the case of GTTGAAAAGT, the switch fluorescence ratio is 0.952.
To ACGATGCAGA belongs 1.01; to CTACGTGTCA, 1.05.
To ATTGGGAT belongs 0.999; to AAGATCTATT, 0.978; to ACCTGAGGT, 1.03.
To ACACGCACTC belongs 1.58.
For GCATTACGGA, the switch fluorescence ratio is 1.67.
The value for TCCGTGGGGT was 0.978.
The value for GTTGAGGGCG was 1.01; that for CAGGATTGTA was 1.02.
With TGGGAAACGA, the switch fluorescence ratio is 1.01.
Turning to ACTACTTCGA, the switch fluorescence ratio turned out to be 1.02.
To GGACTTCAGG belongs 0.95; to TTTACTGCCG, 0.955; to TCGATGGGAT, 1.03.
As to CAGTGTGAGT, the switch fluorescence ratio was found to be 0.951.
The value for TATACCCTAC was 1.29; that for CGAGTCCCAA was 2.11; that for TGGGCGGCTG was 0.991.
To ACACTGCAA belongs 2.24.
The value for AACTGGGACG was 1.03.
CGTGTCCACT: the switch fluorescence ratio worked out at 1.01.
TTTCTACCAG: the switch fluorescence ratio was 1.03.
GTGCGCGCTG: the switch fluorescence ratio worked out at 1.02.
To GTACGATTAA belongs 0.978.
The value for CTTTTAAGCA was 1.06; that for CGCTATATGA was 1.9.
As for CCGCTTAAA, the switch fluorescence ratio stood at 2.02.
The value for GGGCTTGAAC was 0.967.
The value for TGAAAATCCC was 1.02.
To GCCACGTCAC belongs 1.83; to TTATCTTTCT, 0.966.
For the sequence TTGATGGTTT, the switch fluorescence ratio amounted to 1.01.
To TCTCACCAAG belongs 1.09; to CGTCCAACTG, 1.04.
In the case of GCTGAGTGGA, the switch fluorescence ratio was 1.05.
To CGTTTAAACG belongs 1.02; to GCCCTAAGTT, 0.984.
To GGTCAATCGG belongs 0.972; to CACGATTTTA, 0.968.
On to TGTTTTTCGC, for which the switch fluorescence ratio amounted to 1.
The value for CAACAGGAAG was 0.988; that for TGGCGCAGG was 1.03.
The value for ATAAGCCGAA was 1.04.
To CGGGATGAG belongs 1.01; to ATTGGAACTC, 1.04; to AGTAGTGTAG, 1.05.
For the sequence TTTCATCAGT, the switch fluorescence ratio was found to be 0.997.
To ATACGCCCCG belongs 1; to GATCGAAGAA, 1.22.
To ACTATGACTA belongs 1.03.
To GAAAGTCCGT belongs 0.98.
AGTCATCCGA: the switch fluorescence ratio was 0.995.
On to GTCATAAATA, for which the switch fluorescence ratio came out at 0.999.
To CAAGGGTGAT belongs 1.01; to TATACAATT, 1.03.
The value for AGTAGTGCGC was 1.01; that for TGCTGTAGCG was 0.989; that for TCTGCTTATG was 0.994.
With GGTTAGATA, the switch fluorescence ratio turned out to be 0.986.
As to CTTAGCGTCA, the switch fluorescence ratio was determined as 1.
The value for GAAATCTTAA was 1.01; that for CGGAAAAGAT was 1.
To GTGTACGGGA belongs 1.05.
To AGTCCTGCGT belongs 0.974.
Regarding CGGGTGGCGT, the switch fluorescence ratio is 0.957.
To GACAAATCG belongs 0.978.
Turning to CCCAGCCTCA, the switch fluorescence ratio was 1.04.
As for AGGGGTA, the switch fluorescence ratio stood at 1.
On to CAAGGGACTC, for which the switch fluorescence ratio is 1.01.
With AATAATTGGA, the switch fluorescence ratio turned out to be 0.97.
To GGGATATTAA belongs 1.03.
The value for GAGATTGTG was 0.998; that for AGTGGCCCAC was 1.02.
The value for TGGACAGAAT was 0.949; that for GCTTCATTAA was 0.984.
